Results: the supplement of paper PMC4967469
The IC50 comes from the fitted curve, where viability falls to half of the control; where the fit passes the top or lowest dose, that dose stands as a limit. AUC is the area under the same curve over the 256-fold range up to the top dose, as a fraction; the more sensitive the line, the further below 1. For part of these data: An inferred top dose was derived from the fitted curves, not read from the paper.

What was measured:
Assay in all cases: Viability of human cancer cell lines after 72 h of drug (GDSC screen)
[1] = compound: COc1cc2nccc(Oc3ccc(NC(=O)Nc4cc(C)on4)c(Cl)c3)c2cc1OC [AV-951]; conditions: top dose 0.128 µM; top dose inferred
Description: (§1)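 Human cancer cell lines in 384-well plates, medium with 10% serum, drug for 72 h over a 256-fold dose range (nine 2-fold or five 4-fold steps up to the top dose). Adherent lines were fixed and stained with the nucleic acid dye Syto60, suspension lines read with resazurin; signal relative to control wells, capped at 0 and 100%. One two-parameter sigmoid per drug and line, fitted in a mixed model over all curves with the slope shared within a line.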

[2] = compound: O=C(NC(COc1ccc2[nH]c(=O)[nH]c2c1)c1ccccc1)c1cccn(Cc2ccc(F)c(F)c2)c1=O [KIN001-244]; conditions: top dose 20 µM; top dose inferred
Description: as §1

[3] = compound: CC(=O)Nc1cccc(-n2c(=O)n(C3CC3)c(=O)c3c(Nc4ccc(I)cc4F)n(C)c(=O)c(C)c32)c1 [Trametinib]; conditions: top dose 1 µM
Description: as §1

[4] = compound: CCNC(=O)C[C@@H]1N=C(c2ccc(Cl)cc2)c2cc(OC)ccc2-n2c(C)nnc21 [I-BET-762]; conditions: top dose 20 µM; top dose inferred
Description: as §1

[5] = compound: CCN1CCN(Cc2ccc(NC(=O)c3ccc(C)c(/C=C/c4cnc5[nH]ccc5c4OC)c3)cc2C(F)(F)F)CC1 [HG-6-64-1]; conditions: top dose 5.12 µM; top dose inferred
Description: as §1

[6] = compound: CCc1cncnc1N1CCN(Cc2nc3ccc(C(F)(F)F)cc3[nH]2)CC1 [PF-4708671]; conditions: top dose 10 µM; top dose inferred
Description: as §1

| Cell Line | AUC [1] | IC50 [1] [µM] | AUC [2] | IC50 [2] [µM] | AUC [3] | IC50 [3] [µM] | AUC [4] | IC50 [4] [µM] | AUC [5] | IC50 [5] [µM] | AUC [6] | IC50 [6] [µM] |
| --- | --- | --- | --- | --- | --- | --- | --- | --- | --- | --- | --- | --- |
| Daoy (medulloblastoma, adherent) | 0.946 | > 0.128 | 0.904 | > 20 | 0.936 | > 1 | 0.845 | 12.5 | 0.83 | 2.81 | 0.953 | > 10 |
| Detroit562 (head and neck, adherent) | 0.988 | > 0.128 | 0.95 | > 20 | 0.917 | > 1 | 0.987 | > 20 | 0.813 | 2.64 | 0.96 | > 10 |
| DoTc2-4510 (cervix, adherent) | 0.989 | > 0.128 | 0.922 | > 20 | 0.955 | > 1 | 0.968 | > 20 | 0.604 | 0.608 | 0.978 | > 10 |
| EBC-1 (lung squamous cell carcinoma, adherent) | 0.98 | > 0.128 | 0.924 | > 20 | 0.195 | 0.00668 | 0.96 | > 20 | 0.796 | 2.76 | 0.907 | > 10 |
| ECC10 (stomach, suspension) | 0.963 | > 0.128 | 0.91 | > 20 | 0.581 | 0.105 | 0.935 | > 20 | 0.698 | 1.19 | 0.96 | > 10 |
| EFM-19 (breast, adherent) | 0.978 | > 0.128 | 0.782 | 13.5 | 0.952 | > 1 | 0.845 | > 20 | 0.723 | 1.95 | 0.966 | > 10 |
| EFM-192A (breast, adherent) | 0.983 | > 0.128 | 0.915 | > 20 | 0.955 | > 1 | 0.871 | > 20 | 0.832 | 3.79 | 0.947 | > 10 |
| EFO-21 (ovary, adherent) | 0.969 | > 0.128 | 0.858 | > 20 | 0.811 | 0.844 | 0.916 | > 20 | 0.741 | 2.17 | 0.929 | > 10 |
| EFO-27 (ovary, adherent) | 0.977 | > 0.128 | 0.908 | > 20 | 0.544 | 0.0851 | 0.958 | > 20 | 0.627 | 0.786 | 0.947 | > 10 |
